# Laboratory results as given in the supplement of paper PMC8728848.
# This is one part of the list.
# B1: PX9961X-pdi-531-24-531 (Parabacteroides distasonis) (protein)
# chain: DLTEEIHSSVIAENYYNNAGEVMAAMMRPWGHFCGTMQVAQSPWSCNELSSDCAAWPQKGRHGYDNGDWIRLHRHQWIPTDGQVVDAWKKLFEGIGYANNFLTDTENIDFEALQVPMSKAQAQAEMRVYRAYCYWYVMDMFGTAPICEKIGEINPSSKSRAELFAWIEKELNESIPSLSESKTETYGRVSKWGAYALLARLYLNAEIYTGQARWDDCIAACDELAKGGFALDKKWNDTFRADNDKRSTEIIWSIVYDEVYAKGMGWYQRWLHYAHQTGWDLQSGPWNGLVTQPTFYDSFADNDLRKIEGFLIGKQYPRKVDENGNYYYDTTAEPLKGSEEYNGQDLVFVNYIKSMTEGEENSGARSIKYEIQPGTTGDMNNDWVMFRYSEVIYNKAEALMRKNGGKATQEVVDMINSVRQRSFKAEDWEKAKYTTATLTMDEFLAEKGREFAFEGIRRTDLVRFNKFVTTSWWDKTASNEPKRNIFPIPQRQLDANANLSPNEANSLF
# Assays:
# Assay in all cases: glycan array binding signal (z-score within array); higher = stronger binding
# Details in all cases: glycan notation: IUPAC condensed, linker removed
# [1] = target: Neu5Ac(a2-6)Gal(b1-4)GlcNAc(b1-3)Gal(b1-4)GlcNAc(b1-3)Gal(b1-4)GlcNAc(b1-2)Man(a1-3)[Neu5Ac(a2-6)Gal(b1-4)GlcNAc(b1-3)Gal(b1-4)GlcNAc(b1-3)Gal(b1-4)GlcNAc(b1-2)Man(a1-6)]GalNAc
# Method in brief: (§1)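 From the Consortium for Functional Glycomics database, 3228 arrays were curated, keeping only those whose protein sequence was available. Binding is given as a within-array Z-score averaged across arrays sharing a protein sequence and across linkers. Negative Z-scores can be read as non-binding.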
# [2] = target: Neu5Ac(a2-6)Gal(b1-4)GlcNAc(b1-3)Gal(b1-4)GlcNAc(b1-3)GalNAc
# Method in brief: as §1
# [3] = target: Neu5Ac(a2-6)Gal(b1-4)GlcNAc(b1-3)Gal(b1-4)GlcNAc(b1-3)[Neu5Ac(a2-6)Gal(b1-4)GlcNAc(b1-3)Gal(b1-4)GlcNAc(b1-6)]GalNAc
# Method in brief: as §1
# [4] = target: Neu5Ac(a2-6)Gal(b1-4)GlcNAc(b1-3)Gal(b1-4)GlcNAc(b1-6)[Gal(b1-3)]GalNAc
# Method in brief: as §1
# [5] = target: Neu5Ac(a2-6)Gal(b1-4)GlcNAc(b1-3)Gal(b1-4)[Fuc(a1-3)]GlcNAc(b1-3)Gal(b1-4)[Fuc(a1-3)]GlcNAc
# Method in brief: as §1
# [6] = target: Neu5Ac(a2-6)Gal(b1-4)GlcNAc(b1-3)GalNAc
# Method in brief: as §1
# [7] = target: Neu5Ac(a2-6)Gal(b1-4)GlcNAc(b1-3)[Neu5Ac(a2-6)Gal(b1-4)GlcNAc(b1-6)]GalNAc
# Method in brief: as §1
# [8] = target: Neu5Ac(a2-6)Gal(b1-4)GlcNAc(b1-6)GalNAc
# Method in brief: as §1
# [9] = target: Neu5Ac(a2-6)Gal(b1-4)GlcNAc(b1-6)[Gal(b1-3)GlcNAc(b1-3)]Gal(b1-4)Glc
# Method in brief: as §1
# [10] = target: Neu5Ac(a2-6)Gal(b1-4)GlcNAc(b1-6)[Gal(b1-3)]GalNAc
# Method in brief: as §1
# [11] = target: Neu5Ac(a2-6)Gal(b1-4)GlcNAc6S
# Method in brief: as §1
# Neu5Ac(a2-6)GalNAc = target: Neu5Ac(a2-6)GalNAc
# Method in brief: as §1
# [12] = target: Neu5Ac(a2-6)GalNAc(b1-4)GlcNAc
# Method in brief: as §1
# [13] = target: Neu5Ac(a2-6)GalNAc(b1-4)GlcNAc6S
# Method in brief: as §1
# [14] = target: Neu5Ac(a2-6)GlcNAc(b1-4)GlcNAc
# Method in brief: as §1
# [15] = target: Neu5Ac(a2-6)GlcNAc(b1-4)GlcNAc(b1-4)GlcNAc
# Method in brief: as §1
# Neu5Ac(a2-8)Neu5Ac = target: Neu5Ac(a2-8)Neu5Ac
# Method in brief: as §1
# [16] = target: Neu5Ac(a2-8)Neu5Ac(a2-3)Gal(b1-3)GalNAc(b1-4)[Neu5Ac(a2-3)]Gal(b1-4)Glc
# Method in brief: as §1
# [17] = target: Neu5Ac(a2-8)Neu5Ac(a2-3)Gal(b1-3)GalNAc(b1-4)[Neu5Ac(a2-8)Neu5Ac(a2-3)]Gal(b1-4)Glc
# Method in brief: as §1
# [18] = target: Neu5Ac(a2-8)Neu5Ac(a2-3)Gal(b1-4)Glc
# Method in brief: as §1
# [19] = target: Neu5Ac(a2-8)Neu5Ac(a2-3)Gal(b1-4)GlcNAc
# Method in brief: as §1
# [20] = target: Neu5Ac(a2-8)Neu5Ac(a2-3)[Gal(b1-3)GalNAc(b1-4)]Gal(b1-4)Glc
# Method in brief: as §1
# [21] = target: Neu5Ac(a2-8)Neu5Ac(a2-3)[GalNAc(b1-4)]Gal(b1-4)Glc
# Method in brief: as §1
# [22] = target: Neu5Ac(a2-8)Neu5Ac(a2-8)Neu5Ac
# Method in brief: as §1
# [23] = target: Neu5Ac(a2-8)Neu5Ac(a2-8)Neu5Ac(a2-3)Gal(b1-4)Glc
# Method in brief: as §1
# [24] = target: Neu5Ac(a2-8)Neu5Ac(a2-8)Neu5Ac(a2-3)[Gal(b1-3)GalNAc(b1-4)]Gal(b1-4)Glc
# Method in brief: as §1
# [25] = target: Neu5Ac(a2-8)Neu5Ac(a2-8)Neu5Ac(a2-3)[GalNAc(b1-4)]Gal(b1-4)Glc
# Method in brief: as §1
# [26] = target: Neu5Ac(a2-8)Neu5Ac(a2-8)Neu5Ac(a2-8)Neu5Ac(a2-3)[GalNAc(b1-4)]Gal(b1-4)Glc
# Method in brief: as §1
# [27] = target: Neu5Ac(a2-8)Neu5Gc(a2-3)Gal(b1-4)GlcNAc
# Method in brief: as §1
# [28] = target: Neu5Ac(b2-6)Gal(b1-4)GlcNAc
# Method in brief: as §1
# Neu5Ac(b2-6)GalNAc = target: Neu5Ac(b2-6)GalNAc
# Method in brief: as §1
# [29] = target: Neu5Ac9Ac(a2-3)Gal(b1-3)GlcNAc
# Method in brief: as §1
# [30] = target: Neu5Ac9Ac(a2-3)Gal(b1-4)GlcNAc
# Method in brief: as §1
# [31] = target: Neu5Ac9Ac(a2-6)Gal(b1-4)GlcNAc
# Method in brief: as §1
# [32] = target: Neu5Gc(a2-3)Gal(b1-3)GlcNAc
# Method in brief: as §1
# [33] = target: Neu5Gc(a2-3)Gal(b1-3)[Fuc(a1-4)]GlcNAc
# Method in brief: as §1
# Neu5Gc(a2-3)Gal(b1-4)Glc = target: Neu5Gc(a2-3)Gal(b1-4)Glc
# Method in brief: as §1
# [34] = target: Neu5Gc(a2-3)Gal(b1-4)GlcNAc
# Method in brief: as §1
# [35] = target: Neu5Gc(a2-3)Gal(b1-4)GlcNAc(b1-3)Gal(b1-4)GlcNAc(b1-2)Man(a1-3)[Neu5Gc(a2-3)Gal(b1-4)GlcNAc(b1-3)Gal(b1-4)GlcNAc(b1-2)Man(a1-6)]Man(b1-4)GlcNAc(b1-4)GlcNAc
# Method in brief: as §1
# [36] = target: Neu5Gc(a2-3)Gal(b1-4)[Fuc(a1-3)]GlcNAc
# Method in brief: as §1
# [37] = target: Neu5Gc(a2-6)Gal(b1-4)GlcNAc
# Method in brief: as §1
# Neu5Gc(a2-6)GalNAc = target: Neu5Gc(a2-6)GalNAc
# Method in brief: as §1
# [38] = target: Neu5Gc(a2-8)Neu5Ac(a2-3)Gal(b1-4)GlcNAc
# Method in brief: as §1
# [39] = target: Neu5Gc(a2-8)Neu5Gc(a2-3)Gal(b1-4)GlcNAc
# Method in brief: as §1
# [40] = target: Neu5Gc(a2-8)Neu5Gc(a2-3)Gal(b1-4)GlcNAc(b1-3)Gal(b1-4)GlcNAc
# Method in brief: as §1
binder,measurement,setting,value
B1,glycan array binding signal (z-score),[1],1.33
same,glycan array binding signal (z-score),[2],-0.35
same,glycan array binding signal (z-score),[3],0.102
same,glycan array binding signal (z-score),[4],-0.281
same,glycan array binding signal (z-score),[5],-0.181
same,glycan array binding signal (z-score),[6],-0.381
same,glycan array binding signal (z-score),[7],2.09
same,glycan array binding signal (z-score),[8],-0.482
same,glycan array binding signal (z-score),[9],-0.144
same,glycan array binding signal (z-score),[10],-0.606
same,glycan array binding signal (z-score),[11],-0.205
same,glycan array binding signal (z-score),Neu5Ac(a2-6)GalNAc,-0.425
same,glycan array binding signal (z-score),[12],-0.003
same,glycan array binding signal (z-score),[13],0.378
same,glycan array binding signal (z-score),[14],-0.539
same,glycan array binding signal (z-score),[15],-0.245
same,glycan array binding signal (z-score),Neu5Ac(a2-8)Neu5Ac,-0.38
same,glycan array binding signal (z-score),[16],0.572
same,glycan array binding signal (z-score),[17],-0.72
same,glycan array binding signal (z-score),[18],-0.472
same,glycan array binding signal (z-score),[19],-0.116
same,glycan array binding signal (z-score),[20],-0.002
same,glycan array binding signal (z-score),[21],0.005
same,glycan array binding signal (z-score),[22],-0.468
same,glycan array binding signal (z-score),[23],-0.747
same,glycan array binding signal (z-score),[24],-0.475
same,glycan array binding signal (z-score),[25],0.243
same,glycan array binding signal (z-score),[26],-0.294
same,glycan array binding signal (z-score),[27],14.4
same,glycan array binding signal (z-score),[28],0.837
same,glycan array binding signal (z-score),Neu5Ac(b2-6)GalNAc,0.643
same,glycan array binding signal (z-score),[29],-0.852
same,glycan array binding signal (z-score),[30],0.639
same,glycan array binding signal (z-score),[31],-0.032
same,glycan array binding signal (z-score),[32],-0.815
same,glycan array binding signal (z-score),[33],-0.094
same,glycan array binding signal (z-score),Neu5Gc(a2-3)Gal(b1-4)Glc,-0.594
same,glycan array binding signal (z-score),[34],-1
same,glycan array binding signal (z-score),[35],-0.117
same,glycan array binding signal (z-score),[36],-0.648
same,glycan array binding signal (z-score),[37],0.505
same,glycan array binding signal (z-score),Neu5Gc(a2-6)GalNAc,-0.693
same,glycan array binding signal (z-score),[38],-0.389
same,glycan array binding signal (z-score),[39],-0.231
same,glycan array binding signal (z-score),[40],-0.598
